Test results: ChEMBL document CHEMBL4888484, “Replenishing the malaria drug discovery pipeline: Screening and hit evaluation of the MMV Hit Generation Library 1 (HGL1) against asexual blood stage Plasmodium falciparum ,using a nano luciferase reporter read-out” (2022)
In all, about 150,000 compounds went through this assay and about 540 (0.36%) showed an effect of 50% or more. This is one part of the list.

These compounds were tested on Plasmodium falciparum (assay: Primary screen in NF54 nanoGlo assay, in single point, at 2uM, 72h; a lower Z score goes with more inhibition). Conditions: timepoint 72 hour.
Assay type: functional, Erythrocyte

| SMILES | % Inhibition [%] | Z score |
| --- | --- | --- |
| O=C(Nc1nc2cc3c(cc2s1)OCCO3)c1ccc2ccccc2c1 | -14 | 2.75 |
| COc1ccc(-c2cc3n(n2)CC(C)(C(=O)NC2CCCCCCC2)N(CC2CCCO2)C3=O)cc1 (stereo not given) | 2 | -0.25 |
| Cc1n[nH]c(=O)c(C(=O)N[C@H]2CCc3nccn3C2)c1C | -5 | 0.8 |
| O=S(=O)(Nc1cc(-c2ccoc2)no1)c1ccc(F)c(Cl)c1 | 1 | -0.15 |
| O=C(Nc1cccnn1)c1cccc(S(=O)(=O)N2CCCCC2)c1 | -10 | 1.68 |
| Cc1coc(C)c1C(=O)N1CCN([C@@H](C)C(=O)N2CCOCC2)CC1 | 1 | -0.11 |
| Cc1ccc(CN(C)C(=O)[C@H]2CCc3nn(C)c(=O)n3C2)s1 | 0 | 0.01 |
| CC(C)NC(=O)c1cc2c(s1)N(CC1CC1)CCCC2 | -4 | 0.78 |
| C[C@H](NCC1(N2CCCC2)CCOCC1)c1ncc(C(C)(C)C)o1 | 5 | -0.47 |
| CC(C)[C@H](NCc1cnn(C)c1)C(=O)OC(C)(C)C | -18 | 1.78 |
| CCOc1ccncc1S(=O)(=O)N1Cc2ccccc2[C@@H]1C | -11 | 0.96 |
| Cc1ccc(C(=O)N2CCN(c3ncccn3)[C@H]3CS(=O)(=O)C[C@H]32)s1 | -2 | 0.31 |
| COC(=O)c1ccccc1CCC(=O)Nc1cnc(CO)cn1 | 5 | -0.98 |
| Cc1ccc(-c2nn(C)c(=O)c3c2CCCC3)cc1S(=O)(=O)Nc1cccc(C)c1C | -8 | 1.21 |
| CCCN(Cc1c(C)nn(-c2ccccc2)c1Oc1ccc(F)cc1F)C(=O)C1CCC1 | 1 | -0.11 |
| Cc1c(NCc2cccc(C#N)c2)cnn1[C@H]1CCOC1 | 18 | -2.09 |
| O=C(Cc1ccc(NS(=O)(=O)c2cccs2)cc1)N1CCC1 | 9 | -1.13 |
| CN(Cc1ccncc1Cl)Cc1nccn1CC(F)(F)F | -3 | 0.28 |
| O=C(NCc1ccsc1)c1ccc(S(=O)(=O)N2CCOCC2)cc1 | -16 | 2.29 |
| O=C(Cc1ccccc1)N1CCN(C(=O)Nc2ccon2)CC1 | -1 | 0.09 |
| O=C(Nc1nnc2ccccn12)c1ccc2c(c1)OCO2 | -9 | 0.99 |
| Cc1[nH]c2c(F)cc(F)cc2c1CCNC(=O)c1cnco1 | -10 | 1.9 |
| Cn1c(=O)c2c(O)c3ncnnc3nc2n(C)c1=O | -34 | 4.02 |
| O=C(NCc1nccnc1-c1ccoc1)c1ccc2c(c1)OCO2 | -4 | 0.59 |
| CCCc1c(C(=O)N2CC(=O)C2)cnn1C1CCCC1 | -5 | 0.65 |
| Cc1c[nH]nc1CN1CCCC[C@H]1c1nccs1 | 10 | -1.27 |
| CN(Cc1ccc2nonc2c1)C(=O)COC[C@H]1CCCCO1 | -4 | 0.49 |
| O=C(O)CN(C(=O)c1ccnn1CC1CCC1)C1CCCCC1 | -3 | 0.36 |

| SMILES | % Inhibition [%] | Z score |
| --- | --- | --- |
| Cc1ccc(C(=O)N[C@H](CO)CC(C)(C)C)c(F)c1 | -4 | 0.33 |
| CC(C)N(C)C(=O)[C@@H]1CC(=O)c2sc(NC(=O)C3CCC3)nc2C1 | -1 | 0.21 |
| COc1ccnc(N[C@@H]2c3ccccc3C[C@@H]2O)n1 | 13 | -1.68 |
| C[C@H](Nc1cnc2ccccc2n1)c1nncn1C | -12 | 1.26 |
| N#Cc1cccnc1N[C@H]1CC(=O)N(CC2CCCCC2)C1 | -10 | 1.53 |
| CC[C@H](NC(=O)Nc1cccc(Cl)c1)c1nnc2n1CCCCC2 | 14 | -1.87 |
| O=C(NCCS(=O)(=O)NC(c1ccccc1)c1ccccc1)c1ccccc1 | 0 | 0.03 |
| C[C@]1(CNC(=O)Cc2cn3cc(F)ccc3n2)CCCCO1 | -5 | 0.56 |
| Cn1cc(Br)c2nc[nH]c(=O)c21 | -14 | 1.39 |
| C[C@@H](C(=O)Nc1nncs1)N(C)Cc1noc(C2CCCC2)n1 | 4 | -0.77 |
| O=C(Nc1onc2c1CCC2)c1ccc2ccccc2c1 | 76 | -8.19 |
| CN1CCC[C@H](CN(C)Cc2ccc(Cl)o2)C1 | 8 | -1.09 |
| CC(O)C1CCCCN1S(=O)(=O)c1cnc2ccc(F)cc2c1 (stereo not given) | -3 | 0.48 |
| Cn1ccc(NC(=O)N[C@H]2CCN(CC(F)F)C2)cc1=O | -14 | 2.47 |
| CN(C)c1nc([C@H]2C[C@@H](Nc3nc(N)nc4c3CCC4)C2)cc(=O)[nH]1 | -4 | 0.39 |
| Cc1cccc(CC(=O)NC2CC3CCC(C2)N3S(C)(=O)=O)c1 (stereo not given) | 5 | -0.82 |
| CC[C@H](Nc1ccc(OC(C)C)c(C)c1)C(N)=O | 11 | -1.6 |
| Cn1cccc1CN[C@H]1[C@H](O)[C@@H](N2CCN(c3ccccc3)CC2)[C@@H]2OC[C@H]1O2 | -4 | 0.55 |
| C[C@@H](C(=O)N(C)c1ccc(Br)cc1Cl)n1cncn1 | 5 | -0.67 |
| COc1ccccc1C(C)(C)c1noc([C@@]23CCCC[C@@H]2NCC3)n1 | -2 | 0.35 |
| O=C(CN1CCC(c2nnc(C(F)(F)F)o2)CC1)N1CCC(Cc2ccccc2)CC1 | -8 | 0.93 |
| O=S1(=O)C[C@H](NC2CCCC2)[C@@H](S(=O)(=O)c2cccs2)C1 | 1 | -0.1 |
| CCn1ccnc1[C@H]1CCCN(C(=O)c2cccnc2O)C1 | -16 | 1.44 |
| C[C@@H](O)CN(C)C(=O)NC[C@H]1CC[C@H](c2ccccc2)O1 | 2 | -0.29 |
| O=C(Nc1cccnc1)c1cc2c(s1)CCCCC2 | -9 | 1.24 |
| C[C@H](OC(=O)C1CCC1)C(=O)Nc1ncnc2[nH]cnc12 | -12 | 1.57 |
| O=C(NCC1(CO)COC1)c1ccc(Cl)c(Cl)c1 | 4 | -0.77 |
